# Measurements taken from the BET-seq Pho4 binding data (Le et al. 2018).
# Some of the results follow. These are noisy estimates, calculated here from bound and input reads.
# Molecular target: T1, Pho4 (S. cerevisiae) (UniProt P07270)
# T1 sequence: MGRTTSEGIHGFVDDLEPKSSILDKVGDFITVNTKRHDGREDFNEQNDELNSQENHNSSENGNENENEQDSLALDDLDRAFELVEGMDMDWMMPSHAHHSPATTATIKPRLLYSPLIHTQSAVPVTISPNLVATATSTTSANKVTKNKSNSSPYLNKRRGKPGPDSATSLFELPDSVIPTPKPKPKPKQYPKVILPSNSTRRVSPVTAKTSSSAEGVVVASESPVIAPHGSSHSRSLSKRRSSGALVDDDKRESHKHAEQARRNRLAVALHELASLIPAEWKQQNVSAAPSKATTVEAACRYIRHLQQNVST
# Experiment: relative binding free energy (BET-seq); higher = weaker binding
# Settings: reference: library average
row,Sequence,relative binding free energy [kcal/mol]
1,TTTGACACGTGAGGAT,0.15
2,TAAAACACGTGTTTAG,0.01
3,GTAAGCACGTGTGAAG,0.12
4,TGTTGCACGTGGCTTA,-0.2
5,AAGGGCACGTGATTGA,0.02
6,TGCAGCACGTGTGAGG,-0.11
7,CGGGGCACGTGTGGAG,0
8,ATAAACACGTGGTGAT,-0.04
9,AGGGTCACGTGGGAAT,0.09
10,GTTGTCACGTGGCCAG,0.11
11,GTGGACACGTGGGTTG,0.03
12,AATTGCACGTGTCAGT,-0.08
13,TTTGACACGTGATGAA,0.07
14,TGATGCACGTGTAGCG,-0.01
15,TGCCACACGTGGTGGG,-0.03
16,TTGAGCACGTGGCAGG,-0.12
17,GACTGCACGTGAGTGG,0.38
18,GGTCTCACGTGACGTG,0.36
19,TAGATCACGTGAGGTT,0.3
20,GTTTTCACGTGGACAG,0.41
21,GATATCACGTGGAGTT,0.17
22,AGTGACACGTGGGAAA,0
23,GTAGTCACGTGAGTCA,0.31

row,Sequence,relative binding free energy [kcal/mol]
1,ATAGTCACGTGGAAAT,0.26
2,AGGGCCACGTGGTTAT,-0.11
3,GCGGGCACGTGAGTGA,0.16
4,TTTGACACGTGTGGCC,0.13
5,ATATACACGTGAGTGG,0.19
6,ACTATCACGTGTTGGT,0.22
7,AGTACCACGTGTTTGT,-0.15
8,TAGGGCACGTGCTGCG,-0.22
9,GGTACCACGTGTGTTT,0.11
10,ATGATCACGTGCGGTT,0.2
11,CTTAACACGTGTGGAG,0.03
12,GCGGTCACGTGGATTG,0.19
13,GTAATCACGTGAAGAG,0.38
14,TATCACACGTGTTGGA,0.1
15,GTGAACACGTGTGGTA,0.13
16,TTGCGCACGTGGAAGT,-0.04
17,AATAGCACGTGTCAGG,-0.02
18,AATGGCACGTGGGTGT,-0.2
19,TGTTACACGTGCAGTG,0
20,CGGGTCACGTGAAGCG,0.32
21,ATGTGCACGTGTGATT,0.09
22,GTGAGCACGTGGTATG,-0.2
23,TAGGTCACGTGTTCAG,-0.05

row,Sequence,relative binding free energy [kcal/mol]
1,GTGAACACGTGTGCTG,-0.02
2,TTAGTCACGTGGGATC,0.01
3,TTGTGCACGTGCTTGC,-0.12
4,TTCCGCACGTGTGGGA,-0.02
5,GGGACCACGTGGGGAT,-0.19
6,CTACTCACGTGTTGGT,0.24
7,CAGTACACGTGGTGGC,0.08
8,TGTTGCACGTGGAGAA,0.03
9,GTGGTCACGTGTAGTG,0.2
10,ATAAGCACGTGCTTTT,-0.1
11,ATATCCACGTGTTTGG,-0.14
12,TGGGGCACGTGTCCTT,-0.13
13,AGTTGCACGTGTATAT,-0.05
14,TGTATCACGTGGGCTG,0.03
15,TAAAACACGTGGGTTG,-0.16
16,ATGCTCACGTGGGACT,0.35
17,ATGTCCACGTGGGTGG,-0.16
18,TATACCACGTGATGTT,0
19,GGGGACACGTGGACAT,0.07
20,CGGAGCACGTGGTTGT,-0.14
21,TAATGCACGTGTGATA,-0.02
22,TGTTTCACGTGGATTA,0.44
23,GTGGGCACGTGAGTCT,0.13

row,Sequence,relative binding free energy [kcal/mol]
1,CGTATCACGTGTGGCG,0.1
2,AATAGCACGTGTGATT,0.06
3,GCGTTCACGTGGATTG,0.34
4,GGGGGCACGTGTAGTA,-0.12
5,TATGTCACGTGCGGTT,0.05
6,GTTGGCACGTGGTTTC,-0.05
7,ATTGTCACGTGTTATT,0.15
8,TATTGCACGTGGATAT,-0.03
9,TTATGCACGTGGAGGG,-0.07
10,TTTTACACGTGGGACT,-0.05
11,TAAAGCACGTGAGATT,0.23
12,CATTACACGTGGTGTT,0.03
13,AGCTTCACGTGGGCGG,-0.04
14,GGCTTCACGTGTGAGT,0.36
15,TCTGCCACGTGGTGTT,-0.21
16,GATAGCACGTGGTTGG,-0.08
17,ATATGCACGTGGAAAG,0.09
18,TGGATCACGTGTTATT,0.13
19,TGTATCACGTGGGCAG,-0.01
20,TGATCCACGTGGTGGC,0.04
21,GGTAGCACGTGTACGG,-0.07
22,GTATGCACGTGTAGTG,0.08
23,GATTACACGTGGGATG,0.17

row,Sequence,relative binding free energy [kcal/mol]
1,ATGGACACGTGATTGT,0.23
2,AGGAACACGTGTGTCG,0.15
3,GAGGCCACGTGTGTAG,-0.02
4,CATTGCACGTGTATTA,0.12
5,TTGTTCACGTGGTGTG,0.25
6,TAAGTCACGTGGTAGT,0.02
7,TGATACACGTGTGGAG,0.05
8,CTCTGCACGTGTTTGT,-0.08
9,AGTCGCACGTGCTGTT,-0.13
10,TAGTACACGTGGGGCG,0.05
11,TGTGTCACGTGTAAAG,0.1
12,GGCGGCACGTGATTTA,0.05
13,TTATTCACGTGAAGCT,0.32
14,GGGAACACGTGTGATA,0.25
15,AGGGGCACGTGTTGGT,-0.01
16,AATAACACGTGAGGTG,0.27
17,AACATCACGTGGGGGT,-0.14
18,GGTAACACGTGAGGTT,0.27
19,ATTTGCACGTGGTCTG,-0.07
20,TATATCACGTGATAAT,0.27
21,CGTAGCACGTGAAGGG,0.18
22,ATGAGCACGTGGTGTG,-0.17
23,TATATCACGTGTCAGG,0.02
